Results as given in paper PMC12040169 (PLOS Biology, 2025).
The list shows a part of the results.

Tested on: T1, C. trachomatis L2/434/Bu expressing GFP (CTL2-GFP)
T1 construct: L2/434/Bu GFP intracellular growth in HeLa cells
Design: species or system HeLa; C. trachomatis total inclusion area by high-content imaging, normalised to DMSO
Details: total inclusion area; 28.5 h, 10 µM; inhibitor
How it was run: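 High-content images of fixed, Hoechst-stained infected cultures supply inclusion area and count (growth) plus nuclei number (viability), complementing bulk GFP/resorufin fluorescence. MIC determination is unchanged from the primary assay.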

SMILES	% of control remaining
Cc1cc(C)n(C(=O)c2cccc(S(=O)(=O)N3CCCCCC3)c2)n1 [CBK266727]	108.788
CC(C)(C)NC(=O)CCn1c(-c2ccncc2)cc2cccnc21 [CBK282620]	118.404
O=C(C1CC1)N1CCc2cc(-c3cn4ccccc4n3)ccc21 [CBK285193]	94.6955
Cc1ccc2c(NC(=O)c3cc4c([nH]c3=O)CCC4)c(C)ccc2n1 [CBK281568]	109.079
O=C(N/N=C/c1c[nH]c2ccc(Br)cc12)c1ccncc1 [CBK262798]	83.5546
COc1ccc2[nH]cc(CCNC(=O)c3ccc4nc[nH]c4c3)c2c1 [CBK122714]	103.093
COCCC(=O)N1C[C@@H](c2ccccc2F)[C@@]2(CCCC(=O)N2)C1 [CBK283360]	97.398
COc1cc(/C=C2\NC(=O)N(Cc3ccc([N+](=O)[O-])cc3)C2=O)ccc1OC(C)C(=O)O (centres unmarked) [CBK265348]	106.89
COc1ccc(-c2c(O)n[nH]c2CCC2CCCC2)cc1 [CBK075126]	101.711
CCn1ncc(CN2CCC(O)(c3ccc(C)cc3)CC2)c1C [CBK282956]	87.0273
O=C(O)c1cc(NC(=O)C2CCCO2)ccc1O (centres unmarked) [CBK269815]	90.5091
Cc1ccc(C2(CN3CCN(Cc4cncn4C)CC3)CC2)cc1 [CBK283308]	103.786
Cc1ccc(-n2c(SCC(=O)N3CCCCC3)nnc2-c2cc(Br)ccc2O)c(C)c1 [CBK269070]	104.28
O=C(O)CC1(CC(=O)Nc2ccc(N3CCCC3=O)c(Cl)c2)CCCCC1 [CBK296664]	92.0816
c1nc(Sc2nccs2)cc(N2CCCC2)n1 [CBK093748]	85.6558
CN1C2C=C(N(CCc3ccccc3)C(=O)c3ccc(-c4ccccc4)cc3)CC1CC2 (centres unmarked) [CBK262596C]	87.1045
Cc1ccc(S(=O)(=O)NCCSCc2cccc(Cl)c2)cc1[N+](=O)[O-] [CBK264116]	97.6339
CC(C)c1ccc(C(C)NC(=O)Cn2cc(C(=O)NC3CCCC3)ccc2=O)cc1 (centres unmarked) [CBK286121]	89.9819
N#Cc1ccc(CNC(=O)N2CCCC(C(=O)O)C2)cc1 (centres unmarked) [CBK161352]	71.6255
CC(=O)c1ccc2[nH]c(C(=O)O)c(CCN)c2c1 [CBK260944]	90.7012
COc1ccc(S(=O)(=O)Nc2ccc(S(=O)(=O)Nc3nccs3)cc2)cc1C [CBK266011]	112.305
CCC(O)Cn1nc(CCSC)nc1-c1cc(=O)n(C)c2ccccc12 (centres unmarked) [CBK306596]	71.7912
CCC(NS(=O)(=O)c1ccc(Br)cc1)C(=O)O (centres unmarked) [CBK264472]	108.182
CN(C)CC(=O)Nc1cc(C(F)(F)F)ccc1Cl [CBK307420]	100.888
CC1(C)CC(=O)c2sc(NC(=O)Cc3ccc(Cl)c(Cl)c3)nc2C1 [CBK144103]	98.9988
CN1CCC(C(=O)N2CCN(c3ncccn3)CC2)CC1 [CBK144511]	98.0392
OCCn1c(S)nnc1-c1ccccc1 [CBK100025]	94.8263

SMILES	% of control remaining
CC(=O)N1CCN(C(C(=O)O)c2c[nH]c3ccc(NC(=O)C(C)C)cc23)CC1 (centres unmarked) [CBK286634]	88.0679
CN1CCN(CCC(=O)N/N=C/c2ccccn2)CC1 [CBK261501]	83.5537
O=C(O)CCSc1c[nH]c2ccccc12 [CBK262319]	49.7241
CC(C)c1ccc(CN2CCN(c3nccnc3NS(C)(=O)=O)CC2)cc1 [CBK084271]	87.2762
O=C(O)CCC1C(=O)CCC1(C(=O)O)c1ccccc1 (centres unmarked) [CBK287208]	83.525
CC1(C)CC(NC(=O)c2cccc([N+](=O)[O-])c2)CC(C)(C)N1 [CBK262952C]	101.673
N#Cc1ccc(CN2CCN(S(=O)(=O)c3ccc(-c4ccccc4)cc3)CC2)cc1 [CBK062752]	90.1583
O=C(Cc1ccsc1)N1CCC(c2cc3cccnc3[nH]2)CC1 [CBK285000]	91.3479
CN(C)c1cccc(-c2nc(-c3occc3C=O)cnc2N)c1 [CBK064001]	94.2181
O=C(Nc1ccccn1)c1cc(O)c(OCc2ccccc2)cn1 [CBK287989]	101.022
Cc1nn(C)c(Cl)c1S(=O)(=O)Nc1nnc(C(F)(F)F)s1 [CBK062003]	101.864
CC1=C(C(=O)N2CCOCC2)C(c2ccc(Cl)cc2)NC(=O)N1c1ccc(C(=O)O)cc1 (centres unmarked) [CBK296999]	88.218
COc1cccc(CNc2nccnc2-c2ccc(S(C)(=O)=O)cc2)c1OC [CBK037452]	80.4873
CC(C)(C)C1=CC2=NC3(CCOCC3)[C@@H]3C[C@@H](O)[C@@H](O)[C@@H]3N2O1 [CBK303244]	63.9192
C[C@H]1[C@@H]2[C@@H](O)C([C@H](C)C(=O)NC3CC3)CC[C@@]2(C)CC[C@@H]1NC(=O)C1CC1 (some centres unmarked) [CBK289442]	83.1549
CCCc1[nH]nc(O)c1CC1CC1 [CBK081129]	88.6398
COc1ccc(C2(NCc3ccc4c(c3)n(C)c(=O)n4C)CC2)cc1 [CBK282836]	76.8757
COc1ccc(N(C)C(=O)N[C@@H]2CC[C@@]3(c4ccc(OC)c(OC)c4)CCN(C)[C@H]3C2)cc1 [CBK045653T]	48.1541
COc1ccc(C(=O)N2CCN(c3ncnc4onc(C)c34)CC2)cc1 [CBK304372]	71.9271
COc1ccc(C2N(Cc3ccccc3)CCN2Cc2ccccc2)c(OC)c1OC [CBK265220]	80.8205
O=C1C=C(OCc2ccccc2)CN1 [CBK020360]	43.121
O=C(Cc1csc(-c2ccc(F)cc2)n1)Nc1ccc(F)cc1 [CBK295177]	92.7958
COc1ccc(CC(=O)N2CCCC2c2nc3ccccc3[nH]2)cc1 (centres unmarked) [CBK283666]	90.4312
COc1ccc(C(=O)CSc2nnc3n(N)cnn23)cc1 [CBK263201]	102.625
Cc1ccc(C(=O)Nc2cccc3cccnc23)cc1Br [CBK265189]	75.7391
FC(F)(F)c1ccnc(OCCNc2ccccc2)c1 [CBK115824]	79.373
Cc1cc(C)nc(NS(=O)(=O)c2ccc(NC(=O)N3c4ccccc4Sc4ccccc43)cc2)n1 [CBK263922]	26.0898

SMILES	% of control remaining
COC(=O)c1ccsc1NS(=O)(=O)c1ccc(NC(C)=O)cc1 [CBK039063]	78.4123
CC(C)N(C)CCOc1ncccc1OCCO [CBK039171]	68.5276
COc1ccc(CNC(=O)CC[C@H]2CNC(=O)[C@H]3NCC[C@H]3N2C)cc1 [CBK289025]	78.9483
CC(C)(C)NC(=O)Cn1c(-c2cccs2)cc2cccnc21 [CBK282455]	135.354
CCCCNc1nccnc1-c1ccccc1 [CBK088477]	88.1353
Clc1nc(NCCN2CCOCC2)nc(N2CCCCCC2)n1 [CBK027412]	60.677
FC(F)(F)c1nc2ccccc2nc1SCc1ccccc1 [CBK103732]	104.807
CCOC(=O)C1CC2CCC1C[C@]21NC(=O)c2ccccc2N1 (some centres unmarked) [CBK284441]	79.9969
O=C(NC(=O)N1CCC2(CC1)NCCc1c2[nH]c2ccc(O)cc12)c1ccccc1 [CBK046936]	90.6601
Cn1cnnc1SCC(C)(C)NS(=O)(=O)c1ccccc1 [CBK268276]	90.0434
CCc1nnc(NCC2CCCCC2)s1 [CBK075044]	80.5911
Cc1nn2c3ccccc3nc2n1CCN1CCCCC1 [CBK278256C]	85.8595
COc1ccc(CN2CCN(Cc3ccccc3[N+](=O)[O-])CC2)c(OC)c1 [CBK263340]	89.6506
C[S+]([O-])c1ccc(-c2ccc(CN(C3CC3)C3CCN(c4ncccn4)CC3)cn2)cc1 (centres unmarked) [CBK172877]	95.3038
Cc1nn(Cc2ccc(C(=O)Nc3c(C)nn(Cc4ccc(Cl)c(Cl)c4)c3C)o2)c(C)c1Br [CBK265855]	73.1608
Nc1nc(OCCOc2ccccc2)cnc1-c1ccsc1 [CBK145163]	97.1772
Cc1ccc(C(=O)Nc2nc3ccc4nc(C)sc4c3s2)cc1 [CBK287305]	77.8773
Cc1ccc2c(c1)nc(CNC(=O)NC1CCCc3cn[nH]c31)n2C (centres unmarked) [CBK305554]	61.3727
Nc1cc2ccccc2c(-c2cc(F)cc(F)c2)n1 [CBK085711]	97.2865
O=C(O)c1csc(S(=O)(=O)Nc2ccc(Br)cc2Cl)c1 [CBK297731]	49.7155
CC1(C)CC(NC(=O)CCc2cc(C(C)(C)C)c(O)c(C(C)(C)C)c2)CC(C)(C)N1 [CBK261986]	77.1999
COc1ccc(C(=O)N[C@H]2CO[C@H]3[C@@H]2OC[C@H]3OC(=O)Nc2ccccc2)cc1 [CBK289463]	107.623
CCOC(=O)c1c(-c2ccccc2)csc1NS(=O)(=O)c1ccc(C)cc1 [CBK015841]	105.43
COc1ccc(C(=O)Nc2cc3ccccc3c(N3CCNCC3)n2)cc1 [CBK036344T]	64.6195
CCOc1ccc(-c2ccnc(C)n2)cc1C(=O)O [CBK306505]	105.642
COc1ncc(-c2cccc(NCC(c3cccnc3)N(C)C)n2)c(OC)n1 (centres unmarked) [CBK037723]	104.527
